The record followed here is patent US20140106440A1, “ENHANCED ENZYMATIC CO2 CAPTURE TECHNIQUES ACCORDING TO SOLUTION PKA, TEMPERATURE AND/OR ENZYME CHARACTER” (CO2 SOLUTIONS INC., priority 2011, published 2014).

Each structure is given as a SMILES string. Read-outs that look alike come from different tables or passages of the source.

In the test the test system is thermostable variant of hCA II ('5X' mutant, M5X). As to conditions: for kOV: 298 K.

The compound `CN(C)CCO` [DMMEA, dimethylethanolamine] registered a kOV (alkanolamine concentration 1.0 kmol m^−3, M5X 50 mg/L) of 169 s⁻¹; a kOV (alkanolamine concentration 1.0 kmol m^−3, M5X 100 mg/L) of 325 s⁻¹; a kOV (alkanolamine concentration 1.0 kmol m^−3, M5X 400 mg/L) of 1045 s⁻¹; a kOV (alkanolamine concentration 2.0 kmol m^−3, M5X 50 mg/L) of 194 s⁻¹; a kOV (alkanolamine concentration 2.0 kmol m^−3, M5X 100 mg/L) of 341 s⁻¹; a kOV (alkanolamine concentration 2.0 kmol m^−3, M5X 200 mg/L) of 638 s⁻¹. The kOV (alkanolamine concentration 2.0 kmol m^−3, M5X 400 mg/L) was 1082 s⁻¹.
For `NCCO` [MEA, monoethanolamine], where the note is “least squares method, 5X CA”, the “k3*” value is given as 0.057 m^6 · mol^−1 · kg^−1 · s^−1 and the “k4*” value came out at 0.040 m^3 · kg^−1.
